Test results: ChEMBL document CHEMBL1201862, “PubChem BioAssay data set” (2004)
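Each compound was tested at five concentrations against cells in 96-well plates for 48 hours. GI50 marks 50% less growth.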 The source made the active and inactive calls. Cut-off read from the data, not from the text of the source: active = GI50 up to about 1.1 µM and inactive = higher. Numbered stars: 1 amine (or outer) side, 2 acyl side, 3 side chain; on linkers, the order of the positions; unused ones are H or OH. Bridge positions count the residues as written; N and C are the ends. Square brackets hold non-standard residues; d marks the D form. Peptide text beside a SMILES is read from it. I, II: the chains in the order shown. * marks the point of attachment. ξ: configuration not given here. X36 = N=C(N)NCCC[C@H](NC(=N)CCCCCCC(=N)N[C@@H](CCCNC(=N)N)C(=O)[*:2])C(=O)[*:1]; ξOrn(4,5-diOH) = O=C(C(CC(O)C(O)N[*:3])N[*:1])[*:2]; ξhTyr(βξ-OH,γξ-OH) = NC(C(=O)O)C(O)C(O)c1ccc(O)cc1; Oic(3aξ,7aξ) = O=C(O)[C@@H]1CC2CCCCC2N1; ξPro(3ξ-OH,4ξ-Me) = CC1CNC(C(=O)O)C1O; X51 = CCCCC/C=C/C/C=C\CCCCCCCC(=O)*; Igl = N[C@H](C(=O)O)C1Cc2ccccc2C1; Hyp = O=C(O)[CH]1C[CH](O)CN1; NMeF = CN[CH](Cc1ccccc1)C(=O)O; NMeV = CN[CH](C(=O)O)C(C)C; Boc = CC(C)(C)OC(=O)*

What follows are compounds tested on NCI-H322M (assay: NCI anticancer screen, dose series, 48 h).
O=[N+]([O-])C(=C(Nc1ccccc1)Nc1ccccc1)/C(Cl)=C(\Cl)[N+](=O)[O-] was tested, and the GI50 was inactive: 14 µM. With O=C(Nc1ccc2ccccc2c1)c1cc2cc(CCl)ccc2oc1=O the GI50 was inactive: > 100 µM. For Cc1cc(NC(=S)SCc2ccc(F)cc2)c([N+](=O)[O-])cc1C, the GI50 was inactive: 39.4 µM. In the case of CC(C)C(NC(=O)OC(C)(C)C)C(=O)N(C)C(Cc1ccccc1)C(=O)N(C)C(C(=O)O)C(C)C (stereo not drawn) (Boc-Val-[NMeF]-[NMeV]-OH; configuration not given here), the GI50 was inactive: > 100 µM. With O=C1C(/C=N/CCc2c[nH]c3ccccc23)C(C(F)(F)F)=NN1c1nc2ccccc2s1 (stereo not given) the GI50 was inactive: 28.3 µM. For Cc1cc([N+](=O)[O-])c(C)c(Br)c1C, the GI50 was inactive: > 100 µM. For N#C[C@@H](c1nc2ccccc2s1)c1ncccc1[N+](=O)[O-], the GI50 was inactive: 15.7 µM. In the case of COC(=O)C(=O)C(C(=O)C=C(C)C)C(=O)C(=O)Nc1nc2ccc([N+](=O)[O-])cc2s1 (stereo not given), the GI50 was inactive: 34.2 µM. For CN(/N=C\c1ccnc2ccccc12)c1ccccc1, the GI50 was inactive: 39.2 µM. CC(C)(C)OC(=O)NC(Cc1ccc(OCc2ccccc2)cc1)C(=O)NC(COCc1ccccc1)C(=O)Oc1c(Cl)c(Cl)c(Cl)c(Cl)c1Cl (stereo not given) was tested, and the GI50 was inactive: 25 µM. With COc1ccc(NC=O)c(C(O)CCNC(C)=O)c1 (stereo not given) the GI50 was inactive: > 100 µM. With C/C=C/C=N/N(c1nnc(-c2ccccc2)c(-c2ccccc2)n1)S(=O)(=O)c1ccc(C)cc1 the GI50 was inactive: 19.6 µM. For COc1cc2nc(-c3cccs3)nc(N3C(c4cc(OC)c(OC)c(OC)c4)=NNC(=O)c4ccccc43)c2cc1OC, the GI50 was inactive: 24.3 µM. CCCCc1ccc(-n2sc3ncccc3c2=O)cc1 was tested, and the GI50 was inactive: 19.5 µM. O=C(NO)c1ccc(OCc2cccc(Cl)c2)cc1 was tested, and the GI50 was inactive: 7.48 µM. With COC(=O)[C@@H]1C=CCN1S(=O)(=O)c1ccc(C)cc1 the GI50 was inactive: > 100 µM. For CC1=C(C(=O)NCc2ccccc2)C(c2ccc(Cl)c(Cl)c2)C(C(=O)NCc2ccccc2)=C(C)N1, the GI50 was inactive: > 100 µM. With Cc1oc2nc(N(C)C)nc(Cl)c2c1C the GI50 was inactive: > 100 µM. For CC(C)(Oc1ccc2c(=O)cc(-c3ccc(Cl)cc3)oc2c1)C(=O)Nc1c(Cl)cccc1Cl, the GI50 was inactive: > 100 µM. In the case of c1ccc(CCCN2C3CCC2CN(CCOC(c2ccccc2)c2ccccc2)C3)cc1, the GI50 was inactive: 12.7 µM. COc1ccc(C2C3C(=O)C=CC(=O)C3[C@@H]2C)cc1OC (stereo not given in full) was tested, and the GI50 was inactive: > 100 µM. CCOC(=O)/C(=C\NC[C@@H](C)O)c1nc2ccccc2[nH]1 was tested, and the GI50 was inactive: > 100 µM. In the case of C=Cc1ccccc1C1(O)C=CC(OC)(OC)C=C1, the GI50 was inactive: 11.5 µM. In the case of CC[P+]1(c2ccccc2)CCCCC1, the GI50 was inactive: > 100 µM. With COc1c2c(c(OC)c3c(=O)cc(C/C(=N/NC(=O)C[n+]4ccccc4)C(=O)Nc4cc(C)ccc4C)oc13)OCO2 the GI50 was inactive: > 100 µM. CCCCC/C=C/C/C=C\CCCCCCCC(=O)NC1CC(O)C(O)NC(=O)C2C(O)C(C)CN2C(=O)C(C(C)O)NC(=O)C(C(O)C(O)c2ccc(O)cc2)NC(=O)C2CC(O)CN2C(=O)C(C(C)O)NC1=O (stereo not drawn) (X51-[ξOrn(4,5-diOH)]T[Hyp][ξhTyr(βξ-OH,γξ-OH)]T[ξPro(3ξ-OH,4ξ-Me)]; lactam 1-C; configuration not given here) was tested, and the GI50 was inactive: > 100 µM. With CCN(CC)CCC(=O)c1ccc(Sc2ccc(F)cc2)cc1 the GI50 was inactive: 15.3 µM. In the case of C[N+]12C=CC=C1C(N1CCCC1)c1scc(-c3ccccc3)c12 (stereo not given), the GI50 was inactive: > 100 µM. In the case of O=C(NS(=O)(=O)Nc1ccc(Cl)cc1)OCc1ccc(Cl)cc1Cl, the GI50 was inactive: 21.2 µM. For Cc1ccc2c(c1)C(=S)N1CSCC1c1nncn1-2 (stereo not given), the GI50 was inactive: > 100 µM. With CN1CCN2CCN(C)CCN(CC1)CC2 the GI50 was inactive: > 100 µM. c1ccc(C2OCC(OC3CCCCO3)CO2)cc1 (stereo not given) was tested, and the GI50 was inactive: > 100 µM. For Cc1[nH]c2ncn3[nH]c(=S)nc3c2c1Cc1ccccc1, the GI50 was inactive: > 100 µM. CN(C)CCCN1c2ccccc2Sc2ccc3ccccc3c21 was tested, and the GI50 was inactive: 12.4 µM. c1ccc(CCNc2ccccn2)nc1 was tested, and the GI50 was inactive: > 100 µM. For CSC1=NC(=O)CCN1C1OCC(OC(C)=O)C(OC(C)=O)C1OC(C)=O (stereo not given), the GI50 was inactive: 20.9 µM. In the case of C=C1CC[C@](C)(O)[C@@]2(C)CC[C@H]3C(=C(C)C)C(=O)C[C@]3(C)C[C@H]12, the GI50 was inactive: > 50 µM. For O=C(CC/C(CC(=O)c1ccc(Cl)cc1)=N\O)Nc1cccc(Cl)c1, the GI50 was inactive: > 100 µM. For Cc1cc([N+](=O)[O-])c(S(=O)(=O)c2ccccc2)c([N+](=O)[O-])c1, the GI50 was inactive: 15 µM. With Cc1ccc(S(=O)(=O)N(CCN2C(=O)c3ccccc3C2=O)c2cc3c4c(c2)Oc2cc(N(CCN5C(=O)c6ccccc6C5=O)S(=O)(=O)c5ccc(C)cc5)cc5c2C4(C)c2c(cc(N(CCN4C(=O)c6ccccc6C4=O)S(=O)(=O)c4ccc(C)cc4)cc2O5)O3)cc1 the GI50 was inactive: 69.8 µM. For Cc1cc2nc3ccc(N(C)C)cc3[s+]c2cc1N [TOLONIUM CHLORIDE], the GI50 was inactive: 12.8 µM. In the case of O=c1ccn2n1Cc1ccccc1C2, the GI50 was inactive: > 100 µM. COc1nc2cccc(C(O)c3ccccc3)c2nc1-c1ccccc1 (stereo not given) was tested, and the GI50 was inactive: 13.7 µM. In the case of CCC1(C)C=Cc2c(cc(O)c3c(=O)c4ccccc4n(C)c23)O1 (stereo not given), the GI50 was inactive: > 10 µM. For Cc1cn([C@H]2C[C@](C)(CO)N(C)O2)c(=O)[nH]c1=O, the GI50 was inactive: > 100 µM. With N=C(N)NCCC[C@H](NC(=O)[C@@H]1CC2CCCCC2N1C(=O)[C@@H](NC(=O)[C@H](CO)NC(=O)[C@@H](NC(=O)CNC(=O)[C@@H]1CCCN1C(=O)[C@H](CCCNC(=N)N)NC(=O)[C@H](CCCNC(=N)N)NC(=N)CCCCCCC(=N)N[C@@H](CCCNC(=N)N)C(=O)N[C@@H](CCCNC(=N)N)C(=O)N1CCC[C@H]1C(=O)N1C[C@H](O)C[C@H]1C(=O)NCC(=O)N[C@H](C(=O)N[C@@H](CO)C(=O)N[C@H](C(=O)N1C2CCCCC2C[C@H]1C(=O)N[C@@H](CCCNC(=N)N)C(=O)O)C1Cc2ccccc2C1)C1Cc2ccccc2C1)C1Cc2ccccc2C1)C1Cc2ccccc2C1)C(=O)O (stereo not given in full) (I: RP[Hyp]G[Igl]S[Igl][Oic(3aξ,7aξ)]R-OH / II: RPG[Igl]S[Igl][Oic(3aξ,7aξ)]R-OH; linker I:N-II:N via X36) the GI50 was inactive: 2.43 µM. In the case of BrCC[N+]12CCCN1CCC2, the GI50 was inactive: 17.5 µM. With CCOP(=O)(O)CN1CCNCCN(CP(=O)(O)OCC)CCNCC1 the GI50 was inactive: > 100 µM. In the case of O=C1C2=C(c3ccccc31)C(c1ccccc1Cl)NC(S)=N2 (stereo not given), the GI50 was inactive: > 100 µM. COc1ccc(-n2c(SC(CN3CCOCC3)CN3CCCC3=O)nc3ccccc3c2=O)cc1 (stereo not given) was tested, and the GI50 was inactive: > 100 µM. With N#CCc1nc2c(s1)C(=O)c1ccccc1C2=O the GI50 was inactive: 23.2 µM. C[n+]1cccc2ccc3cccnc3c21 was tested, and the GI50 was inactive: 36.1 µM. For CNc1ccc(Cl)cc1C(=O)N1CCC[C@H]1CO, the GI50 was inactive: > 100 µM. C[C@@](Br)(C(=O)O)[C@H](Br)C(=O)O was tested, and the GI50 was inactive: 81.5 µM. For CCN(CC)CCNc1ccc2nnn3c4ccc(OCCN(CC)CC)cc4c(=O)c1c23, the GI50 was inactive: 24.3 µM. With CC(=O)OC12C(C)=C(C)C(=O)N1c1ccccc1N2C(C)=O (stereo not given) the GI50 was inactive: > 100 µM. With O=C(Nc1nc2ncn(CCNCc3ccccc3)c2c(=O)[nH]1)c1ccccc1 the GI50 was inactive: > 100 µM. In the case of Oc1ccc(Cn2c(-c3ccc(O)c(O)c3)nc3ccccc32)cc1O, the GI50 was inactive: 15.3 µM. In the case of CC(C)(C)OC(=O)N1N=CCC1c1ccccc1 (stereo not given), the GI50 was inactive: > 100 µM. CSC1=N/C(=C\c2ccccc2)C(=O)N1CN1CCCCC1 was tested, and the GI50 was inactive: > 100 µM. With COc1cc(Br)c(/C=N\c2cccc3ccc(OS(=O)(=O)c4ccc([N+](=O)[O-])cc4)cc23)cc1OC the GI50 was inactive: > 100 µM. For Nc1nnc2n1C(=O)C(C1(C3=Nc4nnc(N)n4C3=O)Cc3ccccc3C1=O)=N2, the GI50 was inactive: > 100 µM. With CC1=NN2C(=N)/C(=C/c3ccc(F)cc3)C(=O)N=C2S1 the GI50 was inactive: > 100 µM. In the case of CCCCCCCCCCCCCCCC(=O)OCC1OC(n2cc(F)c(=O)[nH]c2=O)C(N)C(O)C1O (stereo not given), the GI50 was inactive: 21.6 µM. In the case of Cc1ccc(C2=[N+]([O-])c3ccccc3C2=O)cc1, the GI50 was inactive: > 84.9 µM. O=c1[nH]c2nc3ccccc3c(=O)n2/c1=C/c1cccs1 was tested, and the GI50 was inactive: > 100 µM. With Cc1cc(/N=C/c2ccc(C#N)cc2)n(-c2ccccc2)n1 the GI50 was inactive: 92 µM. With CCCCCCCCCCCCNC(=S)OCCCC the GI50 was inactive: > 100 µM. For N=c1oc2cc(O)c(O)cc2cc1C(N)=O, the GI50 was inactive: > 100 µM. In the case of O=S(=O)(O)c1cc(S(=O)(=O)O)c2cc(/N=N/c3c(O)ccc4ccccc34)ccc2c1, the GI50 was inactive: > 100 µM. In the case of NC(=O)N/N=C/C(=C/Nc1ccccc1)[N+](=O)[O-], the GI50 was inactive: > 100 µM. With CCOP(=O)(OCC)/C(C#N)=C\c1cccc2ccccc12 the GI50 was inactive: > 62.5 µM. For N#CCCSC1SC(=C2SC3=C(SCCS3)S2)SC1SCCC#N (stereo not given), the GI50 was inactive: > 100 µM. In the case of O=C1OC(O)c2cc3c(cc21)OCO3 (stereo not given), the GI50 was inactive: > 100 µM. NCc1ccccc1C1CSCSC1 was tested, and the GI50 was inactive: > 100 µM. For C/C(=C\COP(=O)(O)OP(=O)(O)O)CC/C=C(\C)CNc1ccccc1, the GI50 was inactive: 9.04 µM. For COc1cccc(/C=C/C(=O)N2CC(CCl)c3c2cc(N)c2ccccc32)c1 (stereo not given), the GI50 was active: 0.0114 µM. O=C(OCc1ccccc1)C1(N2CN(C3(C(=O)OCc4ccccc4)CCCC3)CN(C3(C(=O)OCc4ccccc4)CCCC3)C2)CCCC1 was tested, and the GI50 was inactive: > 10 µM. In the case of NS(=O)(=O)c1ccccc1C(=O)N/N=C(\c1nc2ccc([N+](=O)[O-])cc2[nH]c1=O)C(O)c1ccc([N+](=O)[O-])cc1 (stereo not given), the GI50 was inactive: > 100 µM. For CCOC(=O)C12CN(C34CC5CC(CC(C5)C3)C4)CC(C(=O)OCC)(C1=O)C(c1ccccc1)OC2c1ccccc1 (stereo not given), the GI50 was inactive: > 100 µM. With C=C1CC(C/C=C(\C)CC2CC(=C)C(=O)O2)OC1=O (stereo not given) the GI50 was inactive: > 100 µM. For C\C=C/C=C/C=C/C(=O)O, the GI50 was inactive: > 100 µM. With COc1cc(O)c2c(c1)C(=O)C=C(Cl)C2=O the GI50 was inactive: 52.4 µM. Oc1c(Br)cc(Br)cc1CN(Cc1cc(Br)cc(Br)c1O)C1CCCCC1 was tested, and the GI50 was inactive: 51.8 µM. For CCOC(=O)/C(C(=O)Nc1ccc(F)cc1)=C(/N)N1CCCC1, the GI50 was inactive: > 100 µM.
